# Results taken from PubChem BioAssay (NCATS).
# Where “and” joins values, the source holds several entries; their conditions need not be identical. Equal entries are not always repeated. Inconclusive means that the source gave no clear call. Such entries were picked first, then a sample of the others. A potency beside an inconclusive call is a rough fit, not a confirmed value. Calls of active or inactive are those of the source. Calls come from the whole dose curve; as a rule, active = well fitted curve in the direction sought with a large enough effect; inconclusive = small, poorly fitted or top-dose-only effect, or another doubt; inactive = no such curve, though single readings can be large; an effect the other way counts as inactive or inconclusive.
# Assays:
# [1] = qHTS of pediatric cancer cell lines to identify multiple opportunities for drug repurposing: Primary screen for Saos-2 cells (AID 1347097); note: nearly all actives have a fitted effect of over 40% in size
# How it was run: (§1)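 500-1,000 cells/well; 5 h pre-incubation 37 °C/5% CO2; compound pinned; 48 h; CellTiter-Glo, 15 min RT; luminescence. MIPE 11-pt from 0.78 nM, NPC 8-pt from 0.59 nM final. Bortezomib 2.3 µM final as positive control.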
# [2] = qHTS of pediatric cancer cell lines to identify multiple opportunities for drug repurposing: Primary screen for NB1643 cells (AID 1347099); note: nearly all actives have a fitted effect of over 50% in size
# How it was run: as §1
# [3] = qHTS of pediatric cancer cell lines to identify multiple opportunities for drug repurposing: Primary screen for OHS-50 cells (AID 1347103); note: nearly all actives have a fitted effect of over 40% in size
# How it was run: (§2)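 Cells (500-1,000/well) rested 5 h, then received compounds for 48 h; metabolically active cells were measured by CellTiter-Glo luminescence. Final concentrations spanned up to 46 µM (MIPE, 11-point) or 0.59 nM-46 µM (NPC, 8-point) in primary screens, 11-point in follow-ups.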
# [4] = qHTS of pediatric cancer cell lines to identify multiple opportunities for drug repurposing: Primary screen for BT-12 cells (AID 1347101); note: nearly all actives have a fitted effect of over 25% in size
# How it was run: as §2
# [5] = qHTS of pediatric cancer cell lines to identify multiple opportunities for drug repurposing: Primary screen for control Hh wild type fibroblast cells (AID 1347106); note: nearly all actives have a fitted effect of over 55% in size;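 for activity change, negative = cytotoxic: a drop in luminescence marks cytotoxicity and a rise apparent proliferation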
# How it was run: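 Viability after 48 h compound treatment at 37C, 500-1,000 cells/well, read as ATP luminescence with CellTiter-Glo. Primary screens used 11-point (MIPE, 0.78 nM-46 µM) or 8-point (NPC, 0.59 nM-46 µM) final concentrations; follow-up screens used 11-point dilutions.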
# [6] = qHTS of pediatric cancer cell lines to identify multiple opportunities for drug repurposing: Primary screen for LAN-5 cells (AID 1347100); details: LAN-5 neuroblastoma viability, CellTiter-Glo luminescence, 48 h; activity change, negative = cytotoxic: at 46 µM (top of the series)
# How it was run: as §2
# [7] = qHTS of pediatric cancer cell lines to identify multiple opportunities for drug repurposing: Primary screen for Rh18 cells (AID 1347102); details: Rh18 rhabdomyosarcoma viability, CellTiter-Glo luminescence, 48 h; activity change, negative = cytotoxic: at 46 µM (top of the series); note: nearly all actives have a fitted effect of over 65% in size
# How it was run: as §2
# [8] = qHTS of pediatric cancer cell lines to identify multiple opportunities for drug repurposing: Primary screen for RD cells (AID 1347104); note: nearly all actives have a fitted effect of over 55% in size
# How it was run: as §1
# [9] = qHTS of pediatric cancer cell lines to identify multiple opportunities for drug repurposing: Primary screen for MG 63 (6-TG R) cells (AID 1347105); details: MG 63 (6-TG R) viability, CellTiter-Glo, 48 h; activity change, negative = cytotoxic: at 46 µM (top of the series); note: nearly all actives have a fitted effect of over 50% in size
# How it was run: as §1
# Potency is the fitted concentration of half-maximal effect; tags give direction and shape of the fitted curve.
smiles,measurement,setting,value
CNC(=O)c1ccc(N2C(=S)N(c3cnc(C#N)c(C(F)(F)F)c3)C(=O)C23CCC3)cc1F,Potency,[1],inactive
same,Potency,[2],active: 3.32 µM
same,Potency,[3],"inconclusive: 24.3 µM [cytotoxic, partial curve]"
CCn1cc(C(=O)O)c(=O)c2cc(F)c(N3CCN(C)CC3)cc21,Potency,[1],inactive
same,Potency,[4],"inconclusive: 8.63 µM [cytotoxic, partial curve, poor fit]"
C#Cc1cccc(Nc2ncnc3cc(OC)c(OCCCCCCC(=O)NO)cc23)c1,Potency,[1],active: 0.209 µM
same,Potency,[2],active: 0.0743 µM
same,Potency,[5],"inconclusive: 13.2 µM [cytotoxic, partial curve]"
COc1cc2c(Nc3ccc(Br)cc3F)ncnc2cc1OCC1CCN(C)CC1,Potency,[1],"inconclusive: 5.9 µM [cytotoxic, partial curve]"
same,Potency,[4],"inconclusive: 24.3 µM [cytotoxic, partial curve]"
O=C(Nc1ncc([N+](=O)[O-])s1)c1cccs1,Potency,[1],"inconclusive: 33.5 µM [cytotoxic, single point]"
same,Potency,[6],"inconclusive: 33.5 µM [cytotoxic, single point]"
same,Potency,[4],active: 12.3 µM
same,Potency,[7],"inconclusive: 13.3 µM [cytotoxic, partial curve]"
same,Potency,[8],"inconclusive: 23.7 µM [cytotoxic, partial curve]"
same,Potency,[9],"inconclusive: 33.5 µM [cytotoxic, single point]"
same,Potency,[5],inactive
CN(C(=O)CCCOc1ccc2[nH]c(=O)ccc2c1)C1CCCCC1,Potency,[1],"inconclusive: 15 µM [cytotoxic, partial curve, poor fit]"
same,Potency,[6],inactive
same,Potency,[4],"inconclusive: 24.6 µM [cytotoxic, single point]"
same,Potency,[9],inactive
CC(C)(C)C(=O)OCOC(=O)[C@@H]1N2C(=O)[C@@H](NC(=O)[C@H](N)c3ccccc3)[C@H]2SC1(C)C,Potency,[1],inactive
same,Potency,[6],inactive
CC(=O)OCC(=O)[C@@]12OC(C)(C)O[C@@H]1C[C@H]1[C@@H]3C[C@H](F)C4=CC(=O)C=C[C@]4(C)[C@@]3(F)[C@@H](O)C[C@@]12C,Potency,[1],"inconclusive: 15 µM [cytotoxic, partial curve]"
same,Potency,[2],inactive
same,Potency,[3],"inconclusive: 24.6 µM [cytotoxic, partial curve, poor fit]"
O=C1NC(=O)C(c2cnc3ccccn23)=C1c1cn2c3c(cccc13)CN(C(=O)N1CCOCC1)CC2,Potency,[1],"inconclusive: 18.7 µM [cytotoxic, partial curve]"
same,Potency,[6],active: 2.96 µM
same,Potency,[4],"inconclusive: 8.63 µM [cytotoxic, partial curve]"
same,Potency,[7],"inconclusive: 0.0066 µM [cytotoxic, full curve]"
same,Potency,[3],"inconclusive: 19.3 µM [cytotoxic, partial curve]"
same,Potency,[8],"inconclusive: 0.0148 µM [cytotoxic, full curve, poor fit]"
CC(C(=O)O)c1ccc2c(c1)CC(=O)c1ccccc1S2 (stereo unspecified),Potency,[1],"inconclusive: 0.0743 µM [cytotoxic, full curve]"
same,Potency,[6],"inconclusive: 2.64 µM [cytotoxic, full curve]"
same,Potency,[7],inactive
same,Potency,[9],"inconclusive: 18.7 µM [cytotoxic, partial curve]"
Fc1cc(-c2cccc3ncc(-c4cnn(C5CCNCC5)c4)nc23)cc(F)c1CN1CCOCC1,Potency,[1],active: 29.6 µM
same,Potency,[2],active: 18.7 µM
same,Potency,[9],"inconclusive: 29.6 µM [cytotoxic, single point]"
same,Potency,[5],"inconclusive: 33.2 µM [cytotoxic, single point]"
CC(=O)[C@]1(O)Cc2c(O)c3c(c(O)c2[C@@H](O[C@H]2C[C@H](N)[C@@H](O)[C@H](C)O2)C1)C(=O)c1ccccc1C3=O,Potency,[1],"inconclusive: 0.469 µM [cytotoxic, full curve, poor fit]"
same,Potency,[2],active: 0.743 µM
same,Potency,[5],active: 3.72 µM
Cn1cc(C=CC(=O)c2cccc(F)c2)cc1C=CC(=O)NO,Potency,[1],"inconclusive: 7.43 µM [cytotoxic, partial curve]"
same,Potency,[6],"inconclusive: 9.35 µM [cytotoxic, full curve]"
same,Potency,[3],"inconclusive: 8.63 µM [cytotoxic, partial curve]"
same,Potency,[8],"inconclusive: 16.6 µM [cytotoxic, partial curve, poor fit]"
same,Potency,[5],inactive
COc1cccc(OC)c1-c1cc(C(=O)NC2(C(=O)O)C3CC4CC(C3)CC2C4)nn1-c1ccnc2cc(Cl)ccc12 (stereo unspecified),Potency,[1],inactive
same,Potency,[2],"inconclusive: 29.6 µM [cytotoxic, single point]"
same,Potency,[8],inactive
CC(C)n1cnc2c(NCCc3ccc(O)cc3)nc(-c3csc4ccccc34)nc21,Potency,[1],active: 14.8 µM
same,Potency,[6],"inconclusive: 29.6 µM [cytotoxic, single point]"
same,Potency,[4],"inconclusive: 34.3 µM [cytotoxic, single point]"
same,Potency,[7],"inconclusive: 37.2 µM [cytotoxic, single point]"
same,Potency,[3],"inconclusive: 38.5 µM [cytotoxic, single point]"
same,Potency,[9],active: 18.7 µM
same,Potency,[5],inactive
OC(Cn1cncn1)(Cn1cncn1)c1ccc(F)cc1F,Potency,[1],"inconclusive: 14.8 µM [cytotoxic, partial curve]"
same,Potency,[4],inactive
O=C1NS(=O)(=O)c2ccccc21,Potency,[1],inactive
same,Potency,[4],inactive
Cc1c(C)c2c(c(C)c1O)CCC(C)(COc1ccc(CC3SC(=O)NC3=O)cc1)O2 (stereo unspecified),Potency,[1],"inconclusive: 33.5 µM [cytotoxic, single point]"
same,Potency,[6],"inconclusive: 0.001 µM [cytotoxic, full curve, poor fit]"
same,Potency,[4],"inconclusive: 17.4 µM [cytotoxic, partial curve] and inconclusive: 21.7 µM [cytotoxic, partial curve]"
CC1(C)[C@H]2CC[C@]3(C)[C@@H](C(=O)C=C4[C@@H]5C[C@@](C)(C(=O)O)CC[C@]5(C)CC[C@]43C)[C@@]2(C)CC[C@@H]1O,Potency,[1],inactive
same,Potency,[2],inactive
same,Potency,[3],"inconclusive: 34.3 µM [cytotoxic, partial curve, poor fit]"
CC(C(C)N1CC(=O)NC(=O)C1)N1CC(=O)NC(=O)C1 (stereo unspecified),Potency,[1],"inconclusive: 0.187 µM [cytotoxic, partial curve, poor fit]"
same,Potency,[2],"inconclusive: 0.469 µM [cytotoxic, full curve]"
same,Potency,[3],"inconclusive: 1.09 µM [cytotoxic, partial curve, poor fit]"
Cc1nnc(NS(=O)(=O)c2ccc(N)cc2)s1,Potency,[1],"inconclusive: 3.72 µM [cytotoxic, full curve]"
same,Potency,[4],"inconclusive: 6.85 µM [cytotoxic, full curve]"
NS(=O)(=O)c1cc2c(cc1Cl)NC(CSCc1ccccc1)=NS2(=O)=O,Potency,[1],"inconclusive: 26.6 µM [cytotoxic, single point]"
same,Potency,[6],inactive
same,Potency,[9],inactive
O=C(c1ccc(C(=O)N2CCC(N3CCCC3)CC2)c(Nc2ccccc2)c1)N1CCC(N2CCCC2)CC1,Potency,[1],inactive
same,Potency,[4],inactive
CCCCCCCN(CC)CCCC(O)c1ccc(NS(C)(=O)=O)cc1 (stereo unspecified),Potency,[1],"inconclusive: 26.4 µM [cytotoxic, partial curve]"
same,Potency,[6],"inconclusive: 29.6 µM [cytotoxic, single point]"
same,Potency,[3],"inconclusive: 30.6 µM [cytotoxic, partial curve, poor fit]"
CCCCN1C[C@H](O)[C@@H](O)[C@H](O)[C@H]1CO,Potency,[1],"inconclusive: 5.31 µM [cytotoxic, partial curve, poor fit]"
same,Potency,[6],inactive
same,Potency,[7],inactive
same,Potency,[8],inactive
Oc1ccc(Cl)cc1Sc1cc(Cl)ccc1O,Potency,[1],active: 15 µM
same,Potency,[6],active: 18.8 µM
same,Potency,[4],active: 19.5 µM
same,Potency,[7],"inconclusive: 18.8 µM [cytotoxic, single point]"
same,Potency,[3],"inconclusive: 27.6 µM [cytotoxic, single point]"
same,Potency,[9],"inconclusive: 33.5 µM [cytotoxic, single point]"
COc1ccc(-c2cc3c(C)nc(N)nc3n(C3CCC(OCCO)CC3)c2=O)cn1 (stereo unspecified),Potency,[1],active: 0.187 µM
same,Potency,[6],active: 0.469 µM
same,Potency,[4],"inconclusive: 0.109 µM [cytotoxic, full curve]"
same,Potency,[7],active: 0.0935 µM
same,Potency,[8],active: 0.187 µM
COc1ccc(CCC(=O)Nc2nc3ccc(Cl)cc3s2)cc1OC,Potency,[1],"inconclusive: 9.35 µM [cytotoxic, partial curve]"
same,Potency,[2],active: 5.26 µM
same,Potency,[3],"inconclusive: 1.09 µM [cytotoxic, full curve]"
COc1ccc(CN2CCN(C(c3ccc(F)cc3)c3ccc(F)cc3)CC2)c(OC)c1OC,Potency,[1],"inconclusive: 29.9 µM [cytotoxic, single point]"
same,Potency,[6],"inconclusive: 33.5 µM [cytotoxic, single point]"
same,Potency,[4],"inconclusive: 30.9 µM [cytotoxic, single point]"
same,Potency,[7],"inconclusive: 33.5 µM [cytotoxic, single point]"
same,Potency,[8],"inconclusive: 26.6 µM [cytotoxic, single point]"
same,Potency,[9],inactive
COc1cccc2c1C(=O)c1c(O)c3c(c(O)c1C2=O)C[C@@](O)(C(=O)CO)C[C@H]3O[C@H]1C[C@H](N)[C@H](O)[C@H](C)O1,Potency,[1],active: 1.32 µM
same,Potency,[6],"inconclusive: 0.0935 µM [cytotoxic, full curve]"
same,Potency,[4],active: 0.485 µM
same,Potency,[8],active: 0.833 µM
same,Potency,[9],"inconclusive: 0.59 µM [cytotoxic, full curve]"
same,Potency,[5],"inconclusive: 1.32 µM [cytotoxic, full curve]"
CNCCCC1c2ccccc2C=Cc2ccccc21,Potency,[1],"inconclusive: 21.1 µM [cytotoxic, single point]"
same,Potency,[6],"inconclusive: 29.9 µM [cytotoxic, single point]"
same,Potency,[4],"inconclusive: 19.5 µM [cytotoxic, partial curve]"
same,Potency,[7],"inconclusive: 26.6 µM [cytotoxic, single point]"
same,Potency,[9],"inconclusive: 16.8 µM [cytotoxic, partial curve, poor fit]"
